The text below walks through data of patent WO2023074749A1 (dated 2023).

T1: CD25 protein expressed on K562 cells (UniProt P01589 22-272, limits assumed)
T1 construct: whole, on cells; also called K562/CD25 cells; CD25-expressing K562 cells
T1 sequence (looked up): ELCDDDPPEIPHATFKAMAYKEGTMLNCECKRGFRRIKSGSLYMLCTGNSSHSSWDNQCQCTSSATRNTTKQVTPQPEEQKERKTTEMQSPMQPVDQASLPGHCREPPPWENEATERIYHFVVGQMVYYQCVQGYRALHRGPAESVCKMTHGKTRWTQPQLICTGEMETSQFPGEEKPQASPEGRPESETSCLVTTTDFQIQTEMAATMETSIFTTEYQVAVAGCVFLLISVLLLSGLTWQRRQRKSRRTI

The assay concerns the target T1, CD25 protein expressed on K562 cells. Put plainly: biotinylated peptide on K562/CD25 cells (legend of Fig. 5).
With ERPYACPVESCDRRFTGGGVLTAHIRIHTGQKP (biotinylated (site not stated), the form used in BLI is not described) [peptide R1], the binding result is “binds”.

Take ERPYACPVESCGGVFDYHIGLTRHIRIHTGQKP (biotinylated (site not stated), the form used in BLI is not described) [peptide R4]: the binding result is “binds”. The entry for ERPYACPVESCGGVFDYKVQLTRHIRIHTGQKP (biotinylated (site not stated), the form used in BLI is not described) [peptide R5] is “binds”.
